The target of the assay is PD-1 on PD1-Jurkat cells (GenScript, Cat #RD00702) (UniProt Q15116 25-288, limits assumed). Description: cell-based or functional assay.

These results are taken from US20260035463A1 (MINGHUI PHARMACEUTICAL HANGZHOU, published 2026).

Where a chain is given by its changes, count along the chain named.

Sequence of UniProt Q15116 (Q15116 25-288 limits assumed): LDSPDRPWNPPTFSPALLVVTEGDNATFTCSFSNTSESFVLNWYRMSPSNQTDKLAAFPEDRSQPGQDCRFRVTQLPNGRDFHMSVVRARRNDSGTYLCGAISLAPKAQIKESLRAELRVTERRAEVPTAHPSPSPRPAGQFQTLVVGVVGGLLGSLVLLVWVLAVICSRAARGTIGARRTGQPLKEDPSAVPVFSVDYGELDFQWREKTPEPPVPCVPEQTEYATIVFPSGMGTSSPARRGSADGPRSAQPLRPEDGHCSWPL

B1: 162-17 (bispecific antibody, human IgG1, kappa)
heavy: QVQLVESGGGLVQPGGSLRLSCATSGSRRSIYAMGWFRQAPGKGLEFVAGIGWAYATTYYADSVKGRFTISRDNTKNTLYLQMNSLRAEDTAVYYCAADLDHSGFDYWGQGTLVTVSSGGGGSGGGGSGGGGSEVQLVQSGGGVVQPGGSLRLSCAASGYTFTNYGMNWVRQAPGKGLEWVGWINTYTGEPTYAADFKRRFTFSLDTSKSTAYLQMNSLRAEDTAVYYCAKYPHYYGSSHWYFDVWGQGTLVTVSSASTKGPSVFPLAPSSKSTSGGTAALGCLVKDYFPEPVTVSWNSGALTSGVHTFPAVLQSSGLYSLSSVVTVPSSSLGTQTYICNVNHKPSNTKVDKKV[omitted - human IgG1 Fc with changes]
light: DIQMTQSPSSLSASVGDRVTITCSASQDISNYLNWYQQKPGKAPKVLIYFTSSLHSGVPSRFSGSGSGTDFTLTISSLQPEDFATYYCQQYSTVPWTFGQGTKVEIKRTVAAPSVFIFPPSDEQLKSGTASVVCLLNNFYPREAKVQWKVDNALQSGNSQESVTEQDSKDSTYSLSSTLTLSKADYEKHKVYACEVTHQGLSSPVTKSFNRGEC
Take B1: the “EC50 (nM), activity of blocking PD1 (luciferase reporter, PDL1-CHO + PD1-Jurkat cells)” value stood at 0.607 nM.

B2: 162-20 (bispecific antibody, human IgG1, kappa)
heavy: QVQLVESGGGLVQPGGSLRLSCATSGSRRSIYAMGWFRQAPGKGLEFVAGIGWAYATTYYADSVKGRFTISRDNTKNTLYLQMNSLRAEDTAVYYCAADLDHSGFDYWGQGTLVTVSSGGGGSGGGGSGGGGSEVQLVESGGGLVQPGGSLRLSCAASGYDFTHYGMNWVRQAPGKGLEWVGWINTYTGEPTYAADFKRRFTFSLDTSKSTAYLQMNSLRAEDTAVYYCAKYPYYYGTSHWYFDVWGQGTLVTVSSASTKGPSVFPLAPSSKSTSGGTAALGCLVKDYFPEPVTVSWNSGALTSGVHTFPAVLQSSGLYSLSSVVTVPSSSLGTQTYICNVNHKPSNTKVDKKV[omitted - human IgG1 Fc with changes]
light: B1 light with M4L
With B2, the “EC50 (nM), activity of blocking PD1 (luciferase reporter, PDL1-CHO + PD1-Jurkat cells)” value is 1.36 nM.
